# Data: patent publication EP0243717A1 (priority 1986, dated 1987)
# Where two headings read alike, the source gives them in different places.
# Key:
# [1] = test system: Treponema hyodysenteriae DJ70 P-3; details: for Lesion: mice with lesion/mice; for ED50: Table 1; for ED50 / Fifty-percent effective dosages (ED50): CF-1 mice, administration through drinking water; for Curative ratios: Table 2; for Fifty-percent effective dosages (ED50): list after b26
# Experimental: Groups of seven-week old mice (CF-1) are orally infected with Treponema hyodensenteriae DJ 70 P-3 as the test pathogen, each group consisting of five mice. The mice are fasted beginning one day before the bacterial infection, and hygromycin A is administered to them in drinking water at the dosages of 60, 30, 15, 7.5, 3.7, 1.8 and 0.9 µg/ml. The bacterial infection is effected on the first and second days after fasting. The drug is administered through drinking water for six consecutive days after the first bacterial infection. On the sixth day of the administration the test animals are necropsied, and presence of Treponema hyodysenteriae in the contents of their digestive organs are determined by three days' cultivation in blood agar. As the positive control, Lincomycin (60-3.7 pg/ml) Dynamutilin, lankacidin C and olaquindox (60-7.5 µg/ml, respectively) are administered through drinking water at the concentrations indicated. As the negative control, untreated group allowed to freely drink water.
# [2] = test system: C. novyi KB 136 (ILD 140); experiment: microbe, parasite or virus in culture; details: Clostridium novyi; Medium B; read-out: MIC
# Text: (§1) For reference, the minimum growth inhibition concentrations (MIC) to various bacteria of above five drugs and Lankacidin C are shown in Table 3.
# [3] = test system: C. kainantoi KB 133 (IFO 3353); experiment: microbe, parasite or virus in culture; details: Clostridium butyricum, IFO3353
# Text: as §1
# [4] = test system: Treponema hyodysenteriae B 204
# [5] = Dosage 7.5 μg/mℓ in drinking water
# [6] = Dosage 15 μg/mℓ in drinking water
# [7] = Dosage 30 μg/mℓ in drinking water
# [8] = Dosage 60 μg/mℓ in drinking water
# [9] = Treatment A, hygromycin A 10 g/ton feed, Total
# [10] = Treatment A, hygromycin A 10 g/ton feed, per group (Group No. 6, 9)
# [11] = Treatment B, hygromycin A 5 g/ton feed, Total
# [12] = Treatment B, hygromycin A 5 g/ton feed, per group (Group No. 1, 8)
# [13] = Treatment C, hygromycin A 1 g/ton feed, Total
# [14] = Treatment C, hygromycin A 1 g/ton feed, per group (Group No. 2, 5)
# [15] = Dosage 0.9 μg/mℓ in drinking water
# [16] = Dosage 1.8 μg/mℓ in drinking water
# [17] = Dosage 3.7 μg/mℓ in drinking water
smiles,measurement,setting,value
"C=C[C@]1(C)C[C@@H](OC(=O)CSCCN(CC)CC)[C@]2(C)[C@H](C)CC[C@]3(CCC(=O)[C@H]32)[C@@H](C)[C@@H]1O [Dynamutilin, tiamulin]",Noninfective (%),[1]; [5],0%
same,Presence of T. hyo. 1st day,[1]; [5],5/5
same,Presence of T. hyo. 3rd day,[1]; [5],5/5
same,Lesion,[1]; [5],3/5
same,Noninfective (%),[1]; [6],20%
same,Presence of T. hyo. 1st day,[1]; [6],0/5
same,Presence of T. hyo. 3rd day,[1]; [6],4/5
same,Lesion,[1]; [6],0/5
same,Noninfective (%),[1]; [7],40%
same,Presence of T. hyo. 1st day,[1]; [7],0/5
same,Presence of T. hyo. 3rd day,[1]; [7],3/5
same,Lesion,[1]; [7],0/5
same,Noninfective (%),[1]; [8],100%
same,Presence of T. hyo. 1st day,[1]; [8],0/5
same,Presence of T. hyo. 3rd day,[1]; [8],0/5
same,Lesion,[1]; [8],0/5
same,ED50,[1],40 mg/L
same,Curative ratios,[1]; Dosage 7.5 μg/mℓ,0%
same,Curative ratios,[1]; Dosage 15 μg/mℓ,20%
same,Curative ratios,[1]; Dosage 30 μg/mℓ,40%
same,Curative ratios,[1]; Dosage 60 μg/mℓ,100%
same,Fifty-percent effective dosages (ED50),[1],40 mg/L
same,MIC,[2],< 0.2 mg/L
same,MIC,[3],1.56 mg/L
"CC(=O)[C@H]1O[C@@H](Oc2ccc(/C=C(\C)C(=O)N[C@@H]3[C@H](O)[C@@H](O)[C@H]4OCO[C@H]4[C@@H]3O)cc2O)[C@@H](O)[C@@H]1O [Hygromycin A, hygromycin A]",General appearance : No of pig days Depressed,[4]; [9],0 pig days
same,General appearance : No of pig days Moribund,[4]; [9],0 pig days
same,General appearance : No of pig days Normal,[4]; [9],290 pig days
same,General appearance : share of pig days Normal,[4]; [9],100%
same,General appearance : No of pig days Depressed,[4]; [10],0 pig days
same,General appearance : No of pig days Moribund,[4]; [10],0 pig days
same,General appearance : No of pig days Normal,[4]; [10],145 pig days
same,General appearance : No of pig days Depressed,[4]; [11],0 pig days
same,General appearance : No of pig days Moribund,[4]; [11],0 pig days
same,General appearance : No of pig days Normal,[4]; [11],290 pig days
same,General appearance : share of pig days Normal,[4]; [11],100%
same,General appearance : No of pig days Depressed,[4]; [12],0 pig days
same,General appearance : No of pig days Moribund,[4]; [12],0 pig days
same,General appearance : No of pig days Normal,[4]; [12],145 pig days
same,General appearance : No of pig days Depressed,[4]; [13],0 pig days
same,General appearance : No of pig days Moribund,[4]; [13],0 pig days
same,General appearance : No of pig days Normal,[4]; [13],290 pig days
same,General appearance : share of pig days Normal,[4]; [13],100%
same,General appearance : No of pig days Depressed,[4]; [14],0 pig days
same,General appearance : No of pig days Moribund,[4]; [14],0 pig days
same,General appearance : No of pig days Normal,[4]; [14],145 pig days
same,curative effect on swine dysentery,"[4]; even at 1 g/ton feed, same level as 50 g/ton feed of carbadox",curative effect
same,degree of lesions,"[4]; groups A-C (hygromycin A 10, 5, 1 g/ton feed) versus nonmedicated group E",slighter than that of in group E
same,body weight changes / feed effectiveness,"[4]; groups A-C, hygromycin A 10, 5, 1 g/ton feed, […], same degree as carbadox group",a decrease of feed effectiveness was prevented
same,fecal score,"[4]; groups A-D (hygromycin A 10, 5, 1 g/ton feed; carbadox 50 g/ton feed): a little number of pigs revealed soft feces",almost thereof was normal
same,Noninfective (%),[1]; [15],40%
same,Presence of T. hyo. 1st day,[1]; [15],0/5
same,Presence of T. hyo. 3rd day,[1]; [15],3/5
same,Lesion,[1]; [15],0/5
same,Noninfective (%),[1]; [16],100%
same,Presence of T. hyo. 1st day,[1]; [16],0/5
same,Presence of T. hyo. 3rd day,[1]; [16],0/5
same,Lesion,[1]; [16],0/5
same,Noninfective (%),[1]; [17],100%
same,Presence of T. hyo. 1st day,[1]; [17],0/5
same,Presence of T. hyo. 3rd day,[1]; [17],0/5
same,Lesion,[1]; [17],0/5
same,Noninfective (%),[1]; [5],100%
same,Presence of T. hyo. 1st day,[1]; [5],0/5
same,Presence of T. hyo. 3rd day,[1]; [5],0/5
same,Lesion,[1]; [5],0/5
same,Noninfective (%),[1]; [6],100%
same,Presence of T. hyo. 1st day,[1]; [6],0/5
same,Presence of T. hyo. 3rd day,[1]; [6],0/5
same,Lesion,[1]; [6],0/5
same,Noninfective (%),[1]; [7],100%
same,Presence of T. hyo. 1st day,[1]; [7],0/5
same,Presence of T. hyo. 3rd day,[1]; [7],0/5
same,Lesion,[1]; [7],0/5
same,Noninfective (%),[1]; [8],100%
same,Presence of T. hyo. 1st day,[1]; [8],0/5
same,Presence of T. hyo. 3rd day,[1]; [8],0/5
same,Lesion,[1]; [8],0/5
same,ED50,[1],1.1 mg/L
same,Curative ratios,[1]; Dosage 0.9 μg/mℓ,40%
same,Curative ratios,[1]; Dosage 1.8 μg/mℓ,100%
same,Curative ratios,[1]; Dosage 3.7 μg/mℓ,100%
same,Curative ratios,[1]; Dosage 7.5 μg/mℓ,100%
same,Curative ratios,[1]; Dosage 15 μg/mℓ,100%
same,Curative ratios,[1]; Dosage 30 μg/mℓ,100%
same,Curative ratios,[1]; Dosage 60 μg/mℓ,100%
same,Fifty-percent effective dosages (ED50),[1],1.1 mg/L
CCC[C@@H]1C[C@@H](C(=O)N[C@@H]([C@H]2O[C@H](SC)[C@H](O)[C@@H](O)[C@H]2O)[C@@H](C)O)N(C)C1 [Lincomycin],Noninfective (%),[1]; [17],0%
same,Presence of T. hyo. 1st day,[1]; [17],3/5
same,Presence of T. hyo. 3rd day,[1]; [17],5/5
same,Lesion,[1]; [17],1/5
same,Noninfective (%),[1]; [5],20%
same,Presence of T. hyo. 1st day,[1]; [5],0/5
same,Presence of T. hyo. 3rd day,[1]; [5],4/5
same,Lesion,[1]; [5],0/5
same,Noninfective (%),[1]; [6],60%
same,Presence of T. hyo. 1st day,[1]; [6],0/5
same,Presence of T. hyo. 3rd day,[1]; [6],2/5
same,Lesion,[1]; [6],0/5
same,Noninfective (%),[1]; [7],100%
same,Presence of T. hyo. 1st day,[1]; [7],0/5
same,Presence of T. hyo. 3rd day,[1]; [7],0/5
same,Lesion,[1]; [7],0/5
same,Noninfective (%),[1]; [8],100%
same,Presence of T. hyo. 1st day,[1]; [8],0/3
same,Presence of T. hyo. 3rd day,[1]; [8],0/3
same,Lesion,[1]; [8],0/3
same,ED50,[1],13 mg/L
same,Curative ratios,[1]; Dosage 3.7 μg/mℓ,0%
same,Curative ratios,[1]; Dosage 7.5 μg/mℓ,20%
same,Curative ratios,[1]; Dosage 15 μg/mℓ,60%
same,Curative ratios,[1]; Dosage 30 μg/mℓ,100%
same,Curative ratios,[1]; Dosage 60 μg/mℓ,100%
same,Fifty-percent effective dosages (ED50),[1],13 mg/L
same,MIC,[2],< 0.2 mg/L
same,MIC,[3],3.12 mg/L
